Over roughly 33,000 sequences, “E-score (-0.5 to 0.5)” has its median near -0.013; the highest 2% begin near 0.3. This is one part of the list.
Target: T1, Msn1 (UniProt P22148)
T1 sequence: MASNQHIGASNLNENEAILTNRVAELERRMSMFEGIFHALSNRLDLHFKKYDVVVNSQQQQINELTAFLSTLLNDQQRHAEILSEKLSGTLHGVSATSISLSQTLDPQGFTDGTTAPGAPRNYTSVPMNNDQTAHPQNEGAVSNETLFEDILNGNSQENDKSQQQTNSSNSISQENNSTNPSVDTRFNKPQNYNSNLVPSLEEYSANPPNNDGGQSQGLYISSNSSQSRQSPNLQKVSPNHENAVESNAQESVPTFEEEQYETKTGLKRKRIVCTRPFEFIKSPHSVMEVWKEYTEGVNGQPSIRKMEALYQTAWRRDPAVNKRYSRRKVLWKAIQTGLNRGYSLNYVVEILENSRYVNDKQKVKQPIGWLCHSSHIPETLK
Test: PBM E-score (8-mer binding enrichment) (E-score (-0.5 to 0.5)); higher = stronger / more preferred TF binding; most listed sequences are background and not binding sites
Conditions: protein concentration: 200 nM; construct: GST-full length
Summary of the method: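 Each ungapped eight-base word and its reverse complement, pooled, received an E-score from the Universal PBM Analysis Suite. Underlying scans, normalised with masliner, recorded fluorescent anti-GST bound to GST-tagged yeast transcription factors. These were applied at about 100-200 nM to universal all-10-mer Agilent arrays double-stranded by primer extension.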

Row | Sequence | PBM E-score
1 | CAAATCTG | 0.097
2 | GCACTCCC | -0.189
3 | ATCGAGAT | 0.0248
4 | TCGGTCAA | 0.0641
5 | CGTCGCTA | -0.0936
6 | CGCCTTGA | -0.214
7 | AAAGACCG | 0.0194
8 | CCGACCTA | -0.0873
9 | GAAACTGA | -0.0421
10 | ATAATTCA | 0.119
11 | GAAGGCGC | -0.199
12 | GAGCCTAA | -0.107
13 | CGTTAACG | -0.0345
14 | TGCCGTAA | 0.0671
15 | CAAGAACC | 0.117
16 | CCGTTCCA | -0.0998
17 | TCTGACAA | 0.198
18 | CGCAACTA | -0.0727
19 | AGCTATTA | 0.0313
20 | CACTATGG | -0.172
21 | CAATCCAG | 0.0879
22 | CTTTACGC | 0.0302
23 | CAAAGCGG | 0.0733
24 | AGCGTCAT | -0.0807
25 | AGAGTGTG | -0.204

Row | Sequence | PBM E-score
26 | ACAGTTAG | 0.0892
27 | GACTCGTA | -0.159
28 | ACACATAG | 0.0311
29 | GAAAAAGC | 0.0165
30 | CAACTGAC | -0.0694
31 | ACGAAAAG | 0.106
32 | GCTCCACA | -0.208
33 | GCAATAGA | -0.181
34 | AACACGTT | -0.139
35 | AAGAAATA | 0.0701
36 | ATGCTATA | -0.08
37 | CTCCTTTA | 0.00412
38 | ATCACAAC | 0.0882
39 | GTACATAC | 0.217
40 | AGCGCCGA | 0.102
41 | AGAGCCTA | -0.138
42 | TCTGCAAA | -0.129
43 | ATTGCATC | -0.148
44 | ATGAGTAA | 0.0231
45 | AGAAAGTG | -0.0278
46 | CTTTTCCC | -0.0566
47 | AAAGTAAA | -0.00172
48 | AAGAAGAT | -0.0233
49 | CGGTGAAA | 0.202
50 | ATACAATG | 0.153

Row | Sequence | PBM E-score
51 | GGGGCACC | -0.345
52 | AACATGGC | -0.0873
53 | AATGGGAA | -0.049
54 | CCTTGCTA | 0.0249
55 | GAGCCCCC | -0.427
56 | CAAGCGGA | -0.034
57 | ATACTTCA | 0.0733
58 | CAATAAGA | 0.0742
59 | ATCCCCGA | -0.0379
60 | ACGGCTCT | -0.0827
61 | ATCTTAAA | 0.16
62 | TCGCCAAA | -0.077
63 | ATTTGCTG | 0.0441
64 | CCTCATTA | 0.00599
65 | AATATCAC | 0.133
66 | CAGCGACC | -0.133
67 | AAGTCAAC | -0.084
68 | AGTTCTCG | 0.015
69 | AGCTGAGC | -0.211
70 | CTGCGATC | -0.159
71 | AAAGGCAT | -0.0977
72 | AATCCTTG | 0.168
73 | GGAGGCGA | -0.248
74 | ATTCTCAG | 0.101
75 | ATCAGAAA | 0.0721

Row | Sequence | PBM E-score
76 | AACGCCCC | 0.017
77 | ACTTTCAT | 0.0582
78 | AATAGGGC | -0.122
79 | CAGGTGGA | -0.193
80 | TGTAACAA | 0.0916
81 | CGTCTGAC | -0.051
82 | CTTAACTA | 0.188
83 | ATCTTAAG | 0.034
84 | CTAGTGAG | -0.133
85 | GCTCCAGA | -0.0316
86 | AATCCCAC | -0.147
87 | CGTCGCCC | -0.134
88 | CCCCAGCC | -0.271
89 | CATTACGC | -0.0393
90 | ATGTGGGC | -0.0708
91 | CACAGCTA | -0.0605
92 | CGATAGGA | -0.162
93 | ACGGACGG | 0.00266
94 | AAGCGATG | 0.082
95 | GGAGATTA | -0.121
96 | TGGGCCAA | -0.0623
97 | GAAAACAA | 0.18
98 | ATAAGCAT | 0.0942
99 | CAGGTGGG | -0.175
100 | CAAGATAC | 0.115

Row | Sequence | PBM E-score
101 | ATGGAAGA | -0.155
102 | ATGTATAA | 0.264
103 | CGGTGATC | -0.174
104 | TGAACGCA | -0.0234
105 | AATCTTCG | 0.0326
106 | AGCCGACA | -0.00627
107 | CTATCTCC | -0.0897
108 | AGCGACAC | 0.0837
109 | AACTGTCG | 0.078
110 | AATCCTCC | -0.227
111 | ACGGCTGA | 0.00781
112 | CCTTCTTC | -0.316
113 | AAAGTTGA | 0.098
114 | CCTCTACA | -0.142
115 | ATGTTTGG | 0.0609
116 | GATCTTGA | 0.0536
117 | AAGCGCCG | 0.1
118 | CCAACAAC | -0.0621
119 | GGACGAAA | 0.287
120 | TAAAAGCA | -0.035
121 | AGGCCACC | -0.296
122 | TCTTGGAA | -0.0574
123 | AGAATAAT | -0.064
124 | AGGCTCAC | -0.126
125 | AGCATTTC | 0.186

Row | Sequence | PBM E-score
126 | CACTTAAA | 0.0414
127 | CTTCGGAA | 0.206
128 | GACCCCCC | -0.413
129 | ATACTTCG | 0.123
130 | GTGGGTTA | -0.0624
131 | CATAATAC | -0.00236
132 | ATTCTAGC | 0.0901
133 | CAGATATG | 0.0698
134 | TCAAAGAA | -0.0114
135 | ATACTAAT | 0.122
136 | GCATTGGA | -0.145
137 | GCCATGCC | -0.0334
138 | GAAGGGTA | -0.158
139 | CGGAATAG | 0.0199
140 | TATCTTCA | -0.0214
141 | CGGTTGCC | 0.134
142 | GAGAGAAC | -0.203
143 | ACTGGAAT | -0.0242
144 | CGCAGGGC | -0.0851
145 | AATGTTAG | 0.0507
146 | CACAAGCG | -0.153
147 | GCTCCTGA | -0.142
148 | GGTGCTAA | -0.0143
149 | AATCAATG | 0.151
150 | AATCTACG | -0.0949

Row | Sequence | PBM E-score
151 | GTGTGAGA | -0.117
152 | ACGGCCAC | -0.0537
153 | ATGGTTGA | -0.138
154 | CACAACTA | 0.0811
155 | CTCACAAA | -0.057
156 | CGCGTGGC | -0.0512
157 | AATTCAGG | 0.109
158 | CAGTGTAC | 0.0681
159 | TAACAATA | 0.174
160 | AGACTACG | -0.214
161 | GCATACAC | -0.0445
162 | AAATATAG | 0.268
163 | GAGGCTCA | -0.37
164 | CATTTTGA | 0.157
165 | CGCTTAAA | -0.0836
166 | CGACCCCG | -0.346
167 | TAAGGATA | 0.13
168 | ATTATTCA | 0.202
169 | CCTTTATC | -0.0525
170 | CTCCCAGC | -0.088
171 | TAAGTGTA | 0.174
172 | GCTGGGAA | -0.0782
